Values marked as one replicate rest on one cluster of the flow cell; about a third of the high ones do not repeat.
System: ATP
Assay: switch fluorescence ratio, 500 uM ATP over buffer (Cy3 cluster intensity, sum of 5 cycles each) (fold (ratio)); higher = stronger signal-on switching upon ATP binding; sequences stand for … in TCGTCGGCAGCGTCAGATGTGTATAAGAGACAGTTTTTTTTTTTTTTTTTTTTTTTTT…TC
Conditions: aptamer strand: ATP DNA aptamer (quencher-CACCTGGGGGAGTATTGCGGAGGAAGG + anchor), 100 nM annealed; ATP concentration: 500 uM; one replicate
In short: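 Per cluster, summed Cy3 intensity from the target cycles was divided by that from the buffer cycles to give the fluorescence ratio, then averaged per switch-domain sequence. Clusters outside 100-1000 RFU were excluded. The Cy3-labelled switching-strand clusters, on a modified Illumina MiSeq flow-cell, were annealed to 100 nM quencher-labelled ATP aptamer and imaged in selection buffer, then after 15 min with 500 uM ATP at 22 °C, for five cycles with NaOH stripping and re-annealing between them.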
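Also: ATP exposure 15 min at 22 °C before imaging.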

Sequence | switch fluorescence ratio
AGTGTCGGTC | 1.01
GTTTTTCGCG | 1.02
TTCGAACAGG | 1.07
GCGTTCAATT | 0.99
GTGTACATTA | 1.01
TATCCACGCC | 1.13
ATGGGCGCTC | 1.03
AGGAACCGGG | 1
AGGATGACCT | 1.04
GCCAGCCAGC | 1.04
CGGCATCGTA | 1.04
CGCTGTCCTG | 1.01
CGCTGGACAA | 1.03
ACGGGACCAT | 1.21
GCGTGTTCTT | 0.996
TGTCGCCCCG | 1.05
TACATGGTGT | 1.11
GGTTGATGTG | 0.989
ATTGCCCTAG | 1.07
GAGATAAGGT | 0.986
CGGCCTCTTT | 0.988
TCTATGTAGT | 0.972

Sequence | switch fluorescence ratio
ATTAACAGCG | 1.03
AGAAGATCTG | 0.963
GTTCTCGGCC | 1.01
GTTGTCGTTC | 1.01
GTGTATCGTG | 0.983
AAGCGATACG | 2.47
CACGCACTTA | 1.53
TTGGAGGGCC | 1.01
TCACAAAGCT | 1.06
CACTCTAGAT | 1.04
TAGGGCCGTT | 1
CTGGGGAACG | 1.05
GGCGTTGTTG | 0.987
CGCCGAGGTG | 1.87
TCAGTGAATT | 0.966
GATAACAGCG | 1.01
TGTGGATTGG | 0.974
CGGGGAAGCC | 0.998
TCTAGAGAGC | 1.01
TGTAACGGGT | 1.02
GCGTACAGCA | 1.01
AGGATAAAG | 0.99

Sequence | switch fluorescence ratio
TCCTACAGGA | 1.06
ATGATGCGTT | 0.98
ATGGGCCAGT | 0.996
TGGGCTGCAG | 1.03
AGCCTTACC | 1.51
TAACGAAGGC | 1.02
TATTCTACTC | 1.06
AAAACCCGAG | 0.959
ATCCCGGAAG | 1.01
ATAACACTAG | 1.02
AGGGACTGTA | 1.04
ATGCGCACCA | 1.02
GGCGAGGAGG | 1
TATTACGT | 1.05
ATGTTATGGG | 1.01
ATATAGCGAT | 1.05
TGAGTGATA | 0.941
AAGTCAATTG | 0.986
CGCGGTCGGA | 0.977
TCCCACGTTG | 1.09
AGGAGGCAG | 1.04
GAGGGAGCTG | 0.958

Sequence | switch fluorescence ratio
AATTGCAACG | 1.02
CCGGGGACGG | 1.03
TGGGCCCACA | 0.954
CAGACGTCTT | 1.04
GCACTAAGTG | 1.01
TGGATATGTA | 1.04
CTTATCAAGC | 1.01
ATGTAGTATA | 0.98
GCTGCGTACG | 0.993
GACGCTGTAG | 1.19
TTGGGTATTC | 0.995
TGGCGGAGAG | 0.97
GTGGGTGCTT | 1.01
TTACTTGGTT | 1
ATTGGTAAAG | 1
CTCTATTTG | 1.01
CGGTACCTAG | 1.05
GTTATGACGA | 1.02
TAAGGAGAGA | 0.999

From the supplement of paper PMC10126150
